Measurements taken from paper PMC4336329 (PLoS ONE, 2015).
Screen size: about 310,000 compounds; about 14,000 (4.5%) showed an effect of 50% or more. Effects have a minus sign here. Some of the results follow.

target: human ether-à-go-go-related gene (hERG) potassium channel (human, UniProt Q12809); assay: primary screen, population patch clamp on CHO cells stably expressing hERG
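Note: peak tail current of the secondary pulse compared with the same well before compound.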

Chain of human ether-à-go-go-related gene (hERG) potassium channel (Q12809 whole entry, looked up): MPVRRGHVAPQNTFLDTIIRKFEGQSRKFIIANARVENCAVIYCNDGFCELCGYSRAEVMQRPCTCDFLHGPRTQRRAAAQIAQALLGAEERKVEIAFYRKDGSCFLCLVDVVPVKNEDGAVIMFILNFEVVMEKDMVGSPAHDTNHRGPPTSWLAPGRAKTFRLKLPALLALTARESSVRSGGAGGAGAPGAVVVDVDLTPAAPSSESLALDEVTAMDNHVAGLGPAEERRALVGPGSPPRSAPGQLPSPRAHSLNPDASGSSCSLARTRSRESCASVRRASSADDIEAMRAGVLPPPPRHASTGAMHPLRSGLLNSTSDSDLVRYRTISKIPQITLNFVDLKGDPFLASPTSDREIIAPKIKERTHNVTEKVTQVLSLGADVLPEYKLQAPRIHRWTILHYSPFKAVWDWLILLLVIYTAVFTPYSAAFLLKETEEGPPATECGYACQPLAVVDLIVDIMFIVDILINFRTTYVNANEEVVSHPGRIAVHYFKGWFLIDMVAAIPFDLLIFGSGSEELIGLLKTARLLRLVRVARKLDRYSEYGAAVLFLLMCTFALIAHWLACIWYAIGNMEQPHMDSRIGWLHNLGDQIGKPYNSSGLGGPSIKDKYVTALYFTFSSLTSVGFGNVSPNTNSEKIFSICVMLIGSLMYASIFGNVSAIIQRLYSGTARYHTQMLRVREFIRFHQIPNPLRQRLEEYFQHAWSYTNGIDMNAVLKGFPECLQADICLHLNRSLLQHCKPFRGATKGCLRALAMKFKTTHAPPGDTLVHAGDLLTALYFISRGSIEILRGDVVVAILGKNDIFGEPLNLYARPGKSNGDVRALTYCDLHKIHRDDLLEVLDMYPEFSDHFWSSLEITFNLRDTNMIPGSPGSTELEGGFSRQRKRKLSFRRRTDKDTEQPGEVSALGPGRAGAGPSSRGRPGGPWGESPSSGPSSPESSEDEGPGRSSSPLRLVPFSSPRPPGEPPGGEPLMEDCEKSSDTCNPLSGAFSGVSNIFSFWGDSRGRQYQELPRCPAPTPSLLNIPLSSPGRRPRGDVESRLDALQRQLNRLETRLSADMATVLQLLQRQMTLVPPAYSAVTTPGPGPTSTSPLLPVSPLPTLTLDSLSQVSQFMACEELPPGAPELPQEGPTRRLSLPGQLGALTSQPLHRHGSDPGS

Row | Structure (SMILES) | hERG current change (%, negative = inhibition) at 10uM [%]
1 | Fc1ccc(CNc2ccccn2)cc1 | 8.01
2 | CCn1c(CNC(=O)C23CC4CC(CC(C4)C2)C3)nnc1SCC(=O)Nc1nnc(C)s1 | 10.4
3 | CCc1ccc(NC(=O)CSc2nc(N)c(NC(=O)c3ccc(F)c(F)c3)c(=O)[nH]2)cc1 | 19
4 | O=C(O)c1cc(S(=O)(=O)N2CCOCC2)ccc1N1CCOCC1 | 8.16
5 | CCN(CC)C(=O)Cn1c(C)c(/C=C/c2cc[n+](C)cc2)c2ccccc21.[I-] | 14.6
6 | COc1ccc(OC)c(N2C(=NC(=O)C3CCCCC3)SC3CS(=O)(=O)CC32)c1 (centres unmarked) | -37.7
7 | c1cncc(CNc2c3c(nc4nnnn24)CCCC3)c1 | 2.51
8 | COc1cc(/C=N/NC(=O)c2sc(N)c(C#N)c2C)ccc1O | -0.837
9 | Cc1ccc2cccc(OCCCOc3ccccc3F)c2n1.O=C(O)C(=O)O | -8.98
10 | CCCc1ncc(C(O)c2cccc(OC)c2)n1C (centres unmarked) | -2.18
11 | O=C(NC(Nc1nc2ccc([N+](=O)[O-])cc2s1)(C(F)(F)F)C(F)(F)F)c1cccnc1 | -14.3
12 | COc1ccccc1S(=O)(=O)Cc1ccc(C(=O)NC(C)c2ccc3c(c2)OCCO3)o1 (centres unmarked) | -3.94
13 | N#CC1=C(N)NC(SCC(=O)c2ccccc2)=C(C#N)C12CCCC2 | -35.3
14 | Cc1cc(/C=C2\NC(=O)NC2=O)c(C)n1-c1cccnc1 | 5.67
15 | COc1ccc(/C=C/C(=O)Nc2ccncc2)cc1OC | 11.9
16 | CCOc1cc(-c2c(C)c(CC)nc(N)c2C#N)ccc1O | -12.3
17 | CCN(CC)C(=O)c1ccc(NC(=O)C2=C(C)OCCS2)cc1 | 25.4
18 | CCN(C(=O)COC(=O)c1ccc2c(=O)n3c(nc2c1)CCC3)C1CCS(=O)(=O)C1 (centres unmarked) | 19
19 | CCCOC1CCCN(C(=O)c2ccc(OC3CCN(C(=O)COC)CC3)cc2)C1 (centres unmarked) | 25.3

Row | Structure (SMILES) | hERG current change (%, negative = inhibition) at 10uM [%]
20 | CO/N=C/C(c1ccc(Cl)nc1)S(=O)(=O)c1ccccc1 (centres unmarked) | 8.58
21 | CS(=O)(=O)NN1C(=O)c2ccccc2NC1c1ccccc1O (centres unmarked) | 20.2
22 | O=C(COc1ccccc1F)Nc1nnc(-c2ccncc2)s1 | -3.02
23 | CSc1n[nH]c(-c2sccc2OCc2ccc(C)cc2)n1 | -29.3
24 | CNC(=S)N/N=C/c1c(Cl)cccc1Cl | 15
25 | Cc1ccc(OC(C)C(=O)N(C)c2ccccc2)c([N+](=O)[O-])n1 (centres unmarked) | 2.38
26 | CS(=O)(=O)N1CCN(c2ccccc2NC(=O)c2ccc3c(c2)OCCO3)CC1 | -10.6
27 | N#CC1=C(N2CCOCC2)/C(=C\c2ccccc2)CC1 | 3.39
28 | O=C(NCC1CCCO1)c1ccc2c(c1)N(Cc1ccc(F)cc1Cl)C(=O)CS2 (centres unmarked) | 3.23
29 | CC(C)NC(=O)c1cnc(Sc2ncc(C(F)(F)F)cc2Cl)n1C | 5.03
30 | CCOc1ccc(OCC)c(NS(=O)(=O)c2ccc3c(c2)CCN3C(=O)C2CCC2)c1 | 4.11
31 | Cc1cc(=O)oc(C)c1C(=O)Nc1ccccc1F | 5.24
32 | COC(=O)C1=C(C(=O)OC)[C@@H]2N(C)c3ccc(OC)cc3[C@@]23C[C@@H](C(=O)OC)N(S(=O)(=O)c2ccc(OC)cc2)C3=N1 | -12.4
33 | CC(=O)Nc1nc(S(=O)(=O)c2ccc(C)cc2)c(Cl)s1 | -8.1
34 | Cc1nnsc1C(=O)Nc1cccc(Cl)c1Cl | -17.6
35 | O=C(c1cccc(N2C(=O)C3CC=CCC3C2=O)c1)N1CCCCCC1 (centres unmarked) | -3.26
36 | COc1ccc(NC(=O)CN2CCN(CC(=O)Nc3ccc(OC)cc3)CC2)cc1 | -76.6
37 | COc1ccc(OC)c(N(CC(=O)NCCc2ccc(OC)c(OC)c2)S(=O)(=O)c2ccccc2)c1 | -18.3
38 | COC(=O)CSc1nc(N2CCOCC2)c2c(c1C#N)CC(C)(C)N(C)C2 | 2.3

Row | Structure (SMILES) | hERG current change (%, negative = inhibition) at 10uM [%]
39 | Cc1onc(-c2ccccc2Cl)c1C(=O)N1CCCCC1C(=O)O (centres unmarked) | 16.1
40 | COc1ccc(-c2[nH]ncc2CNC(C)Cc2cccc(C)n2)cc1F (centres unmarked) | -24
41 | Cc1ccc(-n2cc[nH]c2=S)cc1C | 22.7
42 | O=C(N/C(=C/C=C\c1ccccc1)C(=O)N1CCOCC1)c1ccc(Br)cc1 | -64.1
43 | O=C(O)c1cc(-c2cccc([N+](=O)[O-])c2)nc2ccccc12 | 3.98
44 | COc1cc(NS(C)(=O)=O)ccc1Nc1c2ccccc2nc2ccccc12.Cl | -67.7
45 | CC(C(=O)Nc1ccc(C(=O)O)cc1)N1C(=O)c2ccccc2C1=O (centres unmarked) | 6.11
46 | Clc1ccc(CSc2ncnc3nc[nH]c23)cc1 | 4.46
47 | CC(=O)NC(CC(=O)O)c1ccccc1 (centres unmarked) | 10.6
48 | CN(CCc1ccccn1)C(=O)Nc1ccc(Cl)cc1 | 6.31
49 | CC(=O)c1c(C)n(Cc2ccccc2Cl)c2ccc(O)cc12 | 9.73
50 | CC(=O)N1c2ccc(S(=O)(=O)N3CCC(C(=O)N4CCN(c5ccccc5)CC4)CC3)cc2CC1C (centres unmarked) | -15
51 | Cc1cccc(C(=O)N2CCN(c3ccc([N+](=O)[O-])c(NCc4ccco4)c3)CC2)c1 | -34
52 | O=C(Cn1nc(C(F)(F)F)c2c1CCCC2)NCCN1CCOCC1 | 2.81
53 | COc1ccc(C)cc1NC(=O)CN(C)S(=O)(=O)c1cnc[nH]1 | -3.02
54 | CCOc1ccccc1NC(=O)C(OC(=O)c1ccccc1NS(=O)(=O)c1cccs1)c1ccccc1 (centres unmarked) | 10.9
55 | NC1=NC(=O)/C(=C/c2ccc(-c3ccc(S(N)(=O)=O)cc3)o2)S1 | 16.4
56 | COC(=O)c1cc(NC(=O)C2CCCN(S(=O)(=O)c3c(C)n[nH]c3C)C2)cc(C(=O)OC)c1 (centres unmarked) | 10.3
